PubChem BioAssay AID1345082 (National Center for Advancing Translational Sciences (NCATS), 2018)
The whole screen tested about 94,000 compounds, of which about 4,000 (4.3%) were called active. The shares of active, inactive and inconclusive entries below differ from those in the screen. The call rests on the fitted dose curve; in most records, active means well fitted inhibition curve with a large enough effect; inconclusive means small, poorly fitted or top-dose-only effect; inactive means no such curve, though single readings can be large or run the other way. A potency beside an inconclusive call is a rough fit, not a confirmed value.

assay: Cytotoxic Profiling in NIH 3T3 Cell Line of Diverse Libraries Using Quantitative High-Throughput Screening; conditions: NIH 3T3 viability, CellTiter-Glo ATP luminescence, 48-72 h; activity change, negative = cytotoxicity: at 96.7 µM (top of the series) unless noted; series mostly up to 96.7 µM; further: nearly all actives have a fitted effect of over 55% in size
Outline: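 Cytotoxicity was measured by CellTiter-Glo ATP luminescence after 48 or 72 h compound exposure at 37 °C. Mouse NIH 3T3 fibroblasts were seeded at 400 cells/well and dosed by 23 nL pin transfer.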
On the % scale 0 is the no-effect control and ±100 the full control effect; potency means the concentration at half of the fitted maximal effect; tags describe the fitted curve by direction and shape.

Row | Structure (SMILES) | activity change, negative = cytotoxicity | Potency | outcome
1 | O=c1[nH]c(C2CCCN([S+](=O)([O-])c3cccc(C(F)(F)F)c3)C2)nn1-c1cccc(Cl)c1 (configuration not stated) | inactive: -4.8% | – | –
2 | COc1ccc(CN2CC(Cn3cccc3)Oc3ccncc3[S+]2(=O)[O-])cc1 (configuration not stated) | – | inconclusive: 44.7 µM [inhibitor, partial curve] | –
3 | O=C(c1cccs1)N1CCC2(CC1)CC(Cc1ccc(F)cc1)CCO2 (configuration not stated) | – | inconclusive: 39.8 µM [inhibitor, partial curve, poor fit] | –
4 | O=C1NCCCCCCN(S(=O)(=O)c2cccnc2)[C@H]2C[C@H](c3nc(-c4cccnc4)no3)C[C@@H]12 | inactive: -18.8% | – | –
5 | Cc1ccc(C2Cn3nnc(C(=O)N4CCC(C(=O)NCc5ccccc5F)CC4)c3CO2)cc1 (configuration not stated) | – | – | inactive
6 | COCCn1ncc(N2CCC(C(=O)N3CCC(C(N)=O)(N4CCCCC4)CC3)C2)cc1=O (configuration not stated) | inactive: 2% | – | –
7 | CC(C)c1cccc(-c2cc(NCc3ccccn3)nc3[nH]ccc23)n1 | – | inconclusive: 28.2 µM [inhibitor, full curve] | –
8 | CCC(C)NC(=O)Cn1cccc1-c1nc(-c2ccc(OC)c(F)c2)no1 (configuration not stated) | – | inconclusive: 44.7 µM [inhibitor, partial curve, poor fit] | –
9 | O=C(c1cc(F)cc(F)c1)N1C[C@@H](CO)[C@H](c2nc(C3CC3)no2)C1 | inactive: -9.34% | – | –
10 | O=C(NCc1ccc(F)cc1)[C@@H]1CCCN1c1nccc(Nc2ccccc2Cl)n1 | – | inconclusive: 14.1 µM [inhibitor, full curve, poor fit] | –
11 | O=C(CCc1ccc2c(c1)CN(C(=O)C1COc3ccccc3O1)CCO2)N1CCOCC1 (configuration not stated) | – | inconclusive: 50.1 µM [inhibitor, partial curve, poor fit] | –
12 | O=C(NCc1ccccn1)C1CCN(C(=O)c2ncn3c2COC(c2ccc(Cl)cc2)C3)CC1 (configuration not stated) | inactive: 4.04% | – | –
13 | CC(C)c1ccc(C(=O)N2CCC[C@H]2c2nc(-c3ccccc3)no2)cc1 | – | inconclusive: 70.8 µM [inhibitor, single point] | –
14 | O=C(NC1CCCCCC1)C1CCc2nnc(C3CC3)n21 (configuration not stated) | – | inconclusive: 70.8 µM [inhibitor, partial curve, poor fit] | –
15 | COc1cc(-c2onc(C)c2C(=O)NCc2ccc(F)cc2F)cc(OC)c1OC | – | inconclusive: 50.1 µM [inhibitor, partial curve, poor fit] | –
16 | CC(=O)N1CC2(CCCN(CC3CCCCC3)C2)Cc2ccccc21 (configuration not stated) | – | inconclusive: 89.1 µM [inhibitor, single point] | –
17 | CCOC(=O)c1cccc(NC(=O)c2ccc3c(c2)N(C)C2CCCCCN2C3=O)c1 (configuration not stated) | – | inconclusive: 50.1 µM [inhibitor, partial curve, poor fit] | –
